Measurements reported in paper PMC3318706 (The Journal of Biological Chemistry, 2012).

Biological target: the molecule itself
Assay: SEC

B1: p97 R155C/N387C disulfide mutant (enzyme)
chain: not shown
modifications: disulfide bond between […] (non-reducing conditions)
stoichiometry N: 6
